# Assay results taken from paper PMC4336329 (PLoS ONE, 2015).
# Among all 310,000 compounds or so, about 2,200 (0.71%) showed an effect of 50% or more. The effect is printed as a negative number. Some of the results follow. Where a SMILES comes first, the peptide text is derived from it.
# Target: human ether-à-go-go-related gene (hERG) potassium channel (human, UniProt Q12809)
# Experiment: primary screen, population patch clamp on CHO cells stably expressing hERG
# human ether-à-go-go-related gene (hERG) potassium channel, sequence (Q12809 whole entry, looked up): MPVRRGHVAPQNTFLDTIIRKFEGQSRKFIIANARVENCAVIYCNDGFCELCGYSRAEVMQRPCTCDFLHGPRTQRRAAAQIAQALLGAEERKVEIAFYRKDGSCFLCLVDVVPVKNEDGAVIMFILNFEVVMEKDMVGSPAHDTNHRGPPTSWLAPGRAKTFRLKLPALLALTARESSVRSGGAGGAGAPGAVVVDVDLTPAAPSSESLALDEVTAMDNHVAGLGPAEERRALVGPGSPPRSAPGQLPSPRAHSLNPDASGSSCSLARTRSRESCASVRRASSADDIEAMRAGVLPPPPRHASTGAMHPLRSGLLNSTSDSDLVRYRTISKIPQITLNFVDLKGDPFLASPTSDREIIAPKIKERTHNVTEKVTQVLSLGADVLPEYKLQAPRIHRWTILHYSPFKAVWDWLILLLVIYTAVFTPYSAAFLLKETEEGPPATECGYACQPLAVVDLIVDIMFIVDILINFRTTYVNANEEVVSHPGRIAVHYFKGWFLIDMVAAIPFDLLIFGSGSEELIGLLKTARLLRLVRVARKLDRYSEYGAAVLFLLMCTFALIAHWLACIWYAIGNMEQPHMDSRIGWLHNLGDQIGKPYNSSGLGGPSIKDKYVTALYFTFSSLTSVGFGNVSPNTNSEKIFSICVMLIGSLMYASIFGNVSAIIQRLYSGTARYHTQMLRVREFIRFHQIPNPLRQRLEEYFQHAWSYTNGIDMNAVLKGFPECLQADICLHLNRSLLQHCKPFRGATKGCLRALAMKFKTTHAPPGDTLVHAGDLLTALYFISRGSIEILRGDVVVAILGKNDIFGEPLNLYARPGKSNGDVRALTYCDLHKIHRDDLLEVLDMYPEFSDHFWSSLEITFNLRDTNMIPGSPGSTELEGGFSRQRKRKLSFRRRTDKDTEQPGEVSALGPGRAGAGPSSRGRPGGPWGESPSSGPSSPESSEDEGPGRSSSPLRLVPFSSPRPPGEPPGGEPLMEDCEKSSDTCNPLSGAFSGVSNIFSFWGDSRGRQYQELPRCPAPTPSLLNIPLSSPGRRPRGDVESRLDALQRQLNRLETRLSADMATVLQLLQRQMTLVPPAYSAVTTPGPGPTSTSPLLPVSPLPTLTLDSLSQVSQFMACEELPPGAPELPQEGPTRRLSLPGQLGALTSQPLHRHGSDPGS
row,SMILES,"hERG current change (%, negative = inhibition) at 1uM [%]"
1,NC(=O)CC(NC(=O)c1ccccc1)c1ccc(NCCc2ccc(F)cc2)c([N+](=O)[O-])c1 (stereo not shown),15.6
2,CCN(CC)c1ccc(/C=N/NC(=O)c2cccc(S(=O)(=O)Nc3ccccc3OC)c2)c(O)c1,9.51
3,COc1ccc(-c2cc3nc(C)c(CCC(=O)NC(C)CCc4ccco4)c(C)n3n2)c(OC)c1 (stereo not shown),-2.43
4,Cc1cc(OCC(=O)NC(Cc2ccc(Cl)cc2)C(=O)O)c2c(C)c(C)c(=O)oc2c1 (stereo not shown),5.22
5,CN(Cc1c(C(=O)N/N=C/c2cccc(F)c2)nnn1-c1nonc1N)c1ccccc1,12.8
6,COc1ccc(C(=O)Nc2c3c(nn2-c2ccc([N+](=O)[O-])cc2)CS(=O)(=O)C3)cc1,-6.55
7,COc1ccc(-c2nnn(Cc3nn[nH]n3)n2)cc1OC,-0.517
8,COc1ccc(CN2CCN(S(=O)(=O)c3ccc(NC(C)=O)cc3)CC2)c(OC)c1OC.O=C(O)C(=O)O,12.1
9,CCC(CC)c1nnc(NC(=O)c2ccc3ccccc3n2)s1,-1.48
10,CCOc1ccccc1NC(=O)Nc1cc(OC)ccc1OC,15.9
11,CCC(C(=O)OCC(=O)Nc1ccc(Cl)c(S(=O)(=O)N(C)C)c1)c1ccccc1 (stereo not shown),7.15
12,COc1ccc(NC(=O)N(Cc2ccc(C)cc2)Cc2ccccn2)c(OC)c1,1.71
13,Cc1ccc(S(=O)(=O)N[C@H](C(=O)Oc2ccc3c(C(F)(F)F)cc(=O)oc3c2)c2ccccc2)cc1,14.4
14,CCN(CCCNC(=O)CN1C(=O)COc2ccccc21)c1cccc(C)c1,10.4
15,CCOC(=O)c1sc2nc(C)nc(NCc3ccccc3)c2c1C,16.7
16,COc1cccc(/C=N/Nc2cc(C)nc(-c3ccccc3O)n2)c1O,6.8
17,COc1ccc(OC)c(NC(=S)NCCC(c2ccccc2)c2ccccc2)c1,12.2
18,COC(=O)[C@H](Cc1ccccc1)NC(=O)[C@@H](N)CC(=O)O (H-Asp-Phe-OMe),5.12
19,COc1ccc(C(=O)NNC(=O)Nc2ccc(Cl)cc2)cc1,13.5
20,Cc1nc(N)nc(Nc2ccc(Cl)cc2)c1Br,2.27
21,CCCCCC(=O)NC(=S)Nc1ccc(N2CCCCC2)c(Cl)c1,12
22,CCOc1cc(/C=N/N=C2/NC(=O)C(CC(=O)O)S2)ccc1OCc1ccccc1Cl (stereo not shown),6.44

row,SMILES,"hERG current change (%, negative = inhibition) at 1uM [%]"
1,CC1(C2CC(C(F)(F)F)n3nc(C(=O)O)cc3N2)CC1 (stereo not shown),13
2,COc1cccc(NC(=O)Cn2nnc(-c3ccccc3N)n2)c1,1.76
3,CN1C(=O)Cn2c1nc1ccccc12,7.32
4,CC(=O)Nc1ccc(S(=O)(=O)N2CCN(S(=O)(=O)c3ccc(NC(C)=O)cc3)CC2)cc1,22.6
5,On1c(-c2ccccc2)nc2ccc(Cl)cc21,1.26
6,O=C(O)c1nc(N2CCCCC2)ncc1Cl,9.09
7,COc1ccc(-c2n[nH]c(C)c2-c2ccc(Cl)cc2)c(O)c1,10.2
8,CC(=O)Oc1ccc(-c2nc(-c3cccnc3)no2)cc1,10.2
9,COc1cc(NC(=O)c2cc3nc(C4CC4)cc(C(F)(F)F)n3n2)c(OC)cc1Cl,-2.75
10,CCCCn1nnnc1NCc1cccc(OC)c1OC,2.57
11,O=C(NCCC1=CCCCC1)C1CCN(C(=O)Cc2ccccc2)CC1,8.44
12,Cc1ccc(C)c(S(=O)(=O)N2CCN(C(=O)c3cc(-c4cccs4)nn3-c3ccccc3)CC2)c1,10.4
13,C=CCCCOc1ccc(C(=O)O)cc1,12.7
14,COc1ccc(Nc2nc(N)nc(CSc3nncn3C)n2)cc1,13
15,COc1ccc(OC)c(/C=N/NC(=O)c2cc3c(OC)cccc3[nH]2)c1,7.35
16,COC(=O)Cc1cc(=O)n2c(nc3ccccc32)[nH]1,12.9
17,Cc1ccc(S(=O)(=O)Oc2ccc(/C=C(/NC(=O)c3ccccc3)C(=O)NC(C)C(=O)O)cc2)cc1 (stereo not shown),15.1
18,O=C(Nc1ccccc1)N1CCN(Cc2ccc(Cl)cc2)CC1,-9.14
19,Cc1ccc(S(=O)(=O)N2CCCC2)cc1C(=O)Nc1ccc(-n2cnnn2)cc1,5.21
20,CCCCNc1c([N+](=O)[O-])cc(C(=O)O)cc1[N+](=O)[O-],3.44
21,O=C(Nc1cccnc1)c1sc2cccc(F)c2c1Cl,11.4
